# In the supplement of paper PMC7125110:
# ± gives the standard error. Variants at the background level are over-represented here.
# B1: glmS ribozyme (parent)
# chain: AUAAAAGCGCCAGAACUACAGAAAUGUAGUUGACGAGGAGGAGGUUUAUCGAAUUUUCGGCGGAUGCCUCCAAA
# Assays:
# Settings in all cases: with glucosamine-6-phosphate
# [1] = variants of: B1; assay: self-cleavage kobs at 640 uM GlcN6P; higher = faster cleavage; RNA array
# Method in brief: (§1)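 kobs was derived by fitting per-tile medians to one- or two-exponential decays after normalising signals to baseline and to non-cleaving reference variants. Those signals came from barcoded ribozyme variants transcribed in situ by E. coli RNA polymerase on sequenced MiSeq chips, followed through a hybridised Cy3 probe at 37 °C and imaged over ~14 h. Glucosamine-6-phosphate (40 μM to 10 mM) in HEPES/KCl/Mg(OAc)2 buffer was flowed in. Weighted Michaelis–Menten fits across concentrations then gave kcat and KM.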
# [2] = variants of: B1; assay: self-cleavage kobs at 40 uM GlcN6P; higher = faster cleavage; RNA array
# Method in brief: as §1
# [3] = variants of: B1; assay: self-cleavage kobs at 2500 uM GlcN6P; higher = faster cleavage; RNA array
# Method in brief: as §1
# [4] = variants of: B1; assay: self-cleavage kobs at 10000 uM GlcN6P; higher = faster cleavage; RNA array
# Method in brief: as §1
# [5] = variants of: B1; assay: self-cleavage kobs at 160 uM GlcN6P; higher = faster cleavage; RNA array
# Method in brief: as §1
Variant,self-cleavage kobs at 640 uM GlcN6P [1],self-cleavage kobs at 40 uM GlcN6P [2],self-cleavage kobs at 2500 uM GlcN6P [3],self-cleavage kobs at 10000 uM GlcN6P [4],self-cleavage kobs at 160 uM GlcN6P [5]
A6C A14U U31C G40U C50U C70U,< 1e-05 s⁻¹,,,,
G60U C67U C70G,,< 1e-05 s⁻¹,< 1e-05 s⁻¹,,
G59U G63C,,< 1e-05 s⁻¹,,< 1e-05 s⁻¹,
A53U U65C C71A,,< 1e-05 s⁻¹,,,
G59C C68A,,< 1e-05 s⁻¹,,< 1e-05 s⁻¹,
G62C G66U,< 1e-05 s⁻¹,< 1e-05 s⁻¹,,,
A64C C71U,,< 1e-05 s⁻¹,,,
U55G C70A,0.00015 ± 3e-05 s⁻¹,5.03e-05 ± 1.3e-05 s⁻¹,0.000147 ± 2.4e-05 s⁻¹,0.000131 ± 2.6e-05 s⁻¹,5.52e-05 ± 1.4e-05 s⁻¹
U65C C67U,,< 1e-05 s⁻¹,,,
A6C A48G,< 1e-05 s⁻¹,,< 1e-05 s⁻¹,,< 1e-05 s⁻¹
A6C C8G G38U A39G,< 1e-05 s⁻¹,,,,
G59A C71U,,< 1e-05 s⁻¹,,,
A53G C70U,0.0139 ± 0.0036 s⁻¹,0.00158 ± 0.00015 s⁻¹,,0.0616 ± 0.014 s⁻¹,0.00129 ± 0.00027 s⁻¹
C58A G62A,< 1e-05 s⁻¹,< 1e-05 s⁻¹,,,
G63A A64G,,< 1e-05 s⁻¹,,< 1e-05 s⁻¹,
U56A C70A,7.05e-05 ± 1.1e-05 s⁻¹,3.68e-05 ± 1.1e-05 s⁻¹,0.000153 ± 2.3e-05 s⁻¹,8.51e-05 ± 9.4e-06 s⁻¹,5.73e-05 ± 1.1e-05 s⁻¹
U56A C70U,0.002 ± 0.00026 s⁻¹,0.000377 ± 3.2e-05 s⁻¹,0.0104 ± 0.0022 s⁻¹,0.0156 ± 0.0024 s⁻¹,0.000852 ± 0.00013 s⁻¹
U54C G62C,,< 1e-05 s⁻¹,,,< 1e-05 s⁻¹
G63U C71U,< 1e-05 s⁻¹,< 1e-05 s⁻¹,,< 1e-05 s⁻¹,
G66U C70U,0.000507 ± 4.8e-05 s⁻¹,6.67e-05 ± 8e-06 s⁻¹,,,0.000141 ± 1.7e-05 s⁻¹
G59U G60C C67A C70G,,< 1e-05 s⁻¹,,,
C61G C71A,,< 1e-05 s⁻¹,,< 1e-05 s⁻¹,
U55C C70U,0.000172 ± 4.7e-05 s⁻¹,2.44e-05 ± 9e-06 s⁻¹,,,7.16e-05 ± 3e-05 s⁻¹
G66U C68U,0.000116 ± 1.2e-05 s⁻¹,2.21e-05 ± 1e-05 s⁻¹,0.000226 ± 4e-05 s⁻¹,0.000311 ± 2.9e-05 s⁻¹,3.82e-05 ± 1.3e-05 s⁻¹
C68U C70U,,< 1e-05 s⁻¹,,,
A53U G66A,0.00327 ± 0.00068 s⁻¹,0.000372 ± 5.2e-05 s⁻¹,0.00666 ± 0.0024 s⁻¹,0.0144 ± 0.0026 s⁻¹,0.000827 ± 0.00015 s⁻¹

Variant,self-cleavage kobs at 640 uM GlcN6P [1],self-cleavage kobs at 40 uM GlcN6P [2],self-cleavage kobs at 2500 uM GlcN6P [3],self-cleavage kobs at 10000 uM GlcN6P [4],self-cleavage kobs at 160 uM GlcN6P [5]
G59C U65C C68G,,< 1e-05 s⁻¹,,< 1e-05 s⁻¹,
U65A C71A,,5.65e-05 ± 2.4e-05 s⁻¹,0.0012 ± 0.00041 s⁻¹,0.00104 ± 0.00039 s⁻¹,
U56G G60U,< 1e-05 s⁻¹,< 1e-05 s⁻¹,,,< 1e-05 s⁻¹
U55G U57C,3.51e-05 ± 1e-05 s⁻¹,< 1e-05 s⁻¹,,,
U55G U57G,,< 1e-05 s⁻¹,,,
G62U U65C,< 1e-05 s⁻¹,< 1e-05 s⁻¹,,,< 1e-05 s⁻¹
U54G U69G,,3.86e-05 ± 1.3e-05 s⁻¹,,,8.46e-05 ± 2.2e-05 s⁻¹
A6C C10U G40U C70A,< 1e-05 s⁻¹,,< 1e-05 s⁻¹,,
A64U U69A,,< 1e-05 s⁻¹,,,
U2A A6G G7C C8G G9C A12G G13A A14C U49G,< 1e-05 s⁻¹,,,,
A53G G59U U65C,,< 1e-05 s⁻¹,,,
A6C A33C C50U C70U,< 1e-05 s⁻¹,,< 1e-05 s⁻¹,,< 1e-05 s⁻¹
U55G U69C,0.000303 ± 6.9e-05 s⁻¹,0.000197 ± 4.3e-05 s⁻¹,0.000289 ± 6.4e-05 s⁻¹,0.000457 ± 8e-05 s⁻¹,0.000229 ± 6.1e-05 s⁻¹
A6C A15G U65C,< 1e-05 s⁻¹,,,,
U57C G62U U65C,,< 1e-05 s⁻¹,,< 1e-05 s⁻¹,
C58U A64G,,< 1e-05 s⁻¹,,,< 1e-05 s⁻¹
U54G C67A,0.000916 ± 0.00018 s⁻¹,0.000326 ± 7.1e-05 s⁻¹,0.00208 ± 0.00067 s⁻¹,0.00623 ± 0.0012 s⁻¹,0.000481 ± 9.8e-05 s⁻¹
A53U A64G,0.00551 ± 0.0013 s⁻¹,0.000491 ± 6.1e-05 s⁻¹,0.0138 ± 0.0041 s⁻¹,,0.00148 ± 0.00041 s⁻¹
A53U C68U,0.000788 ± 9.5e-05 s⁻¹,0.000159 ± 2.1e-05 s⁻¹,0.00421 ± 0.00073 s⁻¹,0.00507 ± 0.00083 s⁻¹,0.000357 ± 0.00011 s⁻¹
G60A G66A,,< 1e-05 s⁻¹,,,< 1e-05 s⁻¹
A53C U54A,,0.000184 ± 2.3e-05 s⁻¹,,,
A53U G62U C70U,,< 1e-05 s⁻¹,,,
C61A C68U,,< 1e-05 s⁻¹,,< 1e-05 s⁻¹,
G60C G63C,< 1e-05 s⁻¹,< 1e-05 s⁻¹,< 1e-05 s⁻¹,< 1e-05 s⁻¹,< 1e-05 s⁻¹
A64G U65C C68A,,< 1e-05 s⁻¹,< 1e-05 s⁻¹,< 1e-05 s⁻¹,
G60U G66A C68G C70G,,< 1e-05 s⁻¹,,< 1e-05 s⁻¹,

Variant,self-cleavage kobs at 640 uM GlcN6P [1],self-cleavage kobs at 40 uM GlcN6P [2],self-cleavage kobs at 2500 uM GlcN6P [3],self-cleavage kobs at 10000 uM GlcN6P [4],self-cleavage kobs at 160 uM GlcN6P [5]
G59C C67U,,< 1e-05 s⁻¹,,,
U54G U65G C67G,,3.01e-05 ± 1.5e-05 s⁻¹,,0.00213 ± 0.00029 s⁻¹,
U56A C67U,0.000938 ± 8.9e-05 s⁻¹,0.000175 ± 1.9e-05 s⁻¹,,,0.000452 ± 6.1e-05 s⁻¹
A64C U65A,,< 1e-05 s⁻¹,,,< 1e-05 s⁻¹
U56A G59C,,< 1e-05 s⁻¹,,,
G62C U69A,,< 1e-05 s⁻¹,,,
C68U U69G C71A,,< 1e-05 s⁻¹,,,
C68A C70U,,< 1e-05 s⁻¹,,,
U56C C67U,,< 1e-05 s⁻¹,,,< 1e-05 s⁻¹
C61U G63A,< 1e-05 s⁻¹,< 1e-05 s⁻¹,,< 1e-05 s⁻¹,< 1e-05 s⁻¹
G63A U65G C67G,,< 1e-05 s⁻¹,,,
G62A A64G,,< 1e-05 s⁻¹,,,
G59U C71G,,< 1e-05 s⁻¹,,,< 1e-05 s⁻¹
U55A,,0.00134 ± 4.9e-05 s⁻¹,,,
U55G,0.0103 ± 0.00037 s⁻¹,0.000889 ± 2.1e-05 s⁻¹,0.0271 ± 0.0015 s⁻¹,0.0436 ± 0.0021 s⁻¹,0.00312 ± 0.00021 s⁻¹
A52U U55A G62C U69C,,< 1e-05 s⁻¹,,< 1e-05 s⁻¹,
A6C C8A U47A G63U,< 1e-05 s⁻¹,,< 1e-05 s⁻¹,,
U69C C71G,6.76e-05 ± 1.6e-05 s⁻¹,3.93e-05 ± 1.3e-05 s⁻¹,7.01e-05 ± 1.5e-05 s⁻¹,6.79e-05 ± 9e-06 s⁻¹,0.000225 ± 0.00011 s⁻¹
A64G U65G,0.000845 ± 0.00015 s⁻¹,5.76e-05 ± 1e-05 s⁻¹,0.00174 ± 0.00029 s⁻¹,0.00489 ± 0.00066 s⁻¹,0.000262 ± 6e-05 s⁻¹
G60A G62U,< 1e-05 s⁻¹,< 1e-05 s⁻¹,,,< 1e-05 s⁻¹
A6C A53G,3.04e-05 ± 1.3e-05 s⁻¹,,,,
A52U U56C,< 1e-05 s⁻¹,< 1e-05 s⁻¹,,,
U56C C58U,,< 1e-05 s⁻¹,,,
U55A A64U C68U,,< 1e-05 s⁻¹,,,
A53U U54C G63C C70U,,< 1e-05 s⁻¹,,,
U54A U65A,0.00105 ± 0.00019 s⁻¹,0.000105 ± 2.7e-05 s⁻¹,0.00254 ± 0.00097 s⁻¹,0.00595 ± 0.00078 s⁻¹,

Variant,self-cleavage kobs at 640 uM GlcN6P [1],self-cleavage kobs at 40 uM GlcN6P [2],self-cleavage kobs at 2500 uM GlcN6P [3],self-cleavage kobs at 10000 uM GlcN6P [4],self-cleavage kobs at 160 uM GlcN6P [5]
U56C C71A,,< 1e-05 s⁻¹,,,
U55C G60U C68U,,< 1e-05 s⁻¹,< 1e-05 s⁻¹,,
A64U C68A,< 1e-05 s⁻¹,< 1e-05 s⁻¹,,< 1e-05 s⁻¹,
U55A G62A,,< 1e-05 s⁻¹,,,
G60A A64G,,< 1e-05 s⁻¹,,,< 1e-05 s⁻¹
G60A A64U,< 1e-05 s⁻¹,< 1e-05 s⁻¹,< 1e-05 s⁻¹,,
U55G C58A,,< 1e-05 s⁻¹,,,
U54A C61U C71G,,< 1e-05 s⁻¹,,,
A53G G60A,,< 1e-05 s⁻¹,3.68e-05 ± 1e-05 s⁻¹,1.88e-05 ± 8.7e-06 s⁻¹,
C67A,0.004 ± 0.00015 s⁻¹,0.000434 ± 1.5e-05 s⁻¹,0.0101 ± 0.00044 s⁻¹,0.0155 ± 0.00076 s⁻¹,0.00132 ± 8.4e-05 s⁻¹
C67G,0.00046 ± 4e-05 s⁻¹,3.28e-05 ± 1e-06 s⁻¹,0.00108 ± 3.9e-05 s⁻¹,0.00145 ± 3.7e-05 s⁻¹,0.000109 ± 2.8e-06 s⁻¹
G60C C71G,,< 1e-05 s⁻¹,,< 1e-05 s⁻¹,< 1e-05 s⁻¹
U55C U65C,,< 1e-05 s⁻¹,,,
U56C C70A,,< 1e-05 s⁻¹,,< 1e-05 s⁻¹,
C61U C67A,,< 1e-05 s⁻¹,,< 1e-05 s⁻¹,
U54C A64G,0.00883 ± 0.0018 s⁻¹,0.000616 ± 8.4e-05 s⁻¹,0.0287 ± 0.0082 s⁻¹,0.0123 ± 0.0031 s⁻¹,0.00156 ± 0.00033 s⁻¹
U56C C61G,,< 1e-05 s⁻¹,< 1e-05 s⁻¹,< 1e-05 s⁻¹,
A64G C68G C71A,< 1e-05 s⁻¹,< 1e-05 s⁻¹,,< 1e-05 s⁻¹,< 1e-05 s⁻¹
A53G U69C,0.00235 ± 0.00048 s⁻¹,0.000897 ± 0.00014 s⁻¹,0.002 ± 0.00044 s⁻¹,0.00674 ± 0.0018 s⁻¹,0.000469 ± 8.4e-05 s⁻¹
U55G C61A G66C C70A,0.000153 ± 3.1e-05 s⁻¹,0.000162 ± 4.4e-05 s⁻¹,8.3e-05 ± 1.7e-05 s⁻¹,,0.000108 ± 2.1e-05 s⁻¹
U54A G62C,< 1e-05 s⁻¹,< 1e-05 s⁻¹,< 1e-05 s⁻¹,< 1e-05 s⁻¹,< 1e-05 s⁻¹
U56G A64U C67U,,< 1e-05 s⁻¹,,,
U55C C71G,,< 1e-05 s⁻¹,,,
G62C C71G,,< 1e-05 s⁻¹,,< 1e-05 s⁻¹,< 1e-05 s⁻¹
A53U U54A C68U,,0.00036 ± 9.6e-05 s⁻¹,,,
G62U A64C C70A,,< 1e-05 s⁻¹,,< 1e-05 s⁻¹,
